From the supplement of paper PMC8728848
The other results are listed elsewhere or left out.

Legend:
Experiment in all cases: glycan array binding signal (z-score within array); higher = stronger binding
Settings in all cases: glycan notation: IUPAC condensed, linker removed
[1] = biological target: Neu5Ac(a2-3)Gal(b1-4)GlcNAc(b1-6)[Neu5Ac(a2-3)Gal(b1-3)]GalNAc
Procedure, shortened: (§1)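 The binding signal is a Z-score computed within each array. Data were drawn from 3228 arrays in the Consortium for Functional Glycomics database, restricted to those with a known protein sequence. Scores were averaged over arrays of the same protein sequence at different concentrations or buffers, and over linkers, and negative values can be taken as non-binding.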

[2] = biological target: Neu5Ac(a2-3)Gal(b1-4)GlcNAc6S
Procedure, shortened: as §1

[3] = biological target: Neu5Ac(a2-3)Gal(b1-4)[Fuc(a1-3)]GlcNAc
Procedure, shortened: as §1

[4] = biological target: Neu5Ac(a2-3)Gal(b1-4)[Fuc(a1-3)]GlcNAc(b1-2)Man
Procedure, shortened: as §1

[5] = biological target: Neu5Ac(a2-3)Gal(b1-4)[Fuc(a1-3)]GlcNAc(b1-3)Gal
Procedure, shortened: as §1

[6] = biological target: Neu5Ac(a2-3)Gal(b1-4)[Fuc(a1-3)]GlcNAc(b1-3)Gal(b1-4)GlcNAc
Procedure, shortened: as §1

[7] = biological target: Neu5Ac(a2-3)Gal(b1-4)[Fuc(a1-3)]GlcNAc(b1-3)Gal(b1-4)[Fuc(a1-3)]GlcNAc(b1-3)Gal(b1-4)[Fuc(a1-3)]GlcNAc
Procedure, shortened: as §1

[8] = biological target: Neu5Ac(a2-3)Gal(b1-4)[Fuc(a1-3)]GlcNAc(b1-3)GalNAc
Procedure, shortened: as §1

[9] = biological target: Neu5Ac(a2-3)Gal(b1-4)[Fuc(a1-3)]GlcNAc(b1-6)[Gal(b1-3)]GalNAc
Procedure, shortened: as §1

[10] = biological target: Neu5Ac(a2-3)Gal(b1-4)[Fuc(a1-3)]GlcNAc(b1-6)[Neu5Ac(a2-3)Gal(b1-3)]GalNAc
Procedure, shortened: as §1

[11] = biological target: Neu5Ac(a2-3)Gal(b1-4)[Fuc(a1-3)]GlcNAc6S
Procedure, shortened: as §1

[12] = biological target: Neu5Ac(a2-3)Gal6S(b1-4)GlcNAc
Procedure, shortened: as §1

[13] = biological target: Neu5Ac(a2-3)Gal6S(b1-4)[Fuc(a1-3)]GlcNAc
Procedure, shortened: as §1

Neu5Ac(a2-3)GalNAc = biological target: Neu5Ac(a2-3)GalNAc
Procedure, shortened: as §1

[14] = biological target: Neu5Ac(a2-3)GalNAc(b1-4)GlcNAc
Procedure, shortened: as §1

[15] = biological target: Neu5Ac(a2-3)[GalNAc(b1-4)]Gal(b1-4)Glc
Procedure, shortened: as §1

[16] = biological target: Neu5Ac(a2-3)[GalNAc(b1-4)]Gal(b1-4)GlcNAc
Procedure, shortened: as §1

[17] = biological target: Neu5Ac(a2-3)[GalNAc(b1-4)]Gal(b1-4)GlcNAc(b1-3)GalNAc
Procedure, shortened: as §1

[18] = biological target: Neu5Ac(a2-3)[Neu5Ac(a2-6)]GalNAc
Procedure, shortened: as §1

Neu5Ac(a2-6)Gal = biological target: Neu5Ac(a2-6)Gal
Procedure, shortened: as §1

[19] = biological target: Neu5Ac(a2-6)Gal(b1-3)GlcNAc(b1-3)[Gal(b1-4)GlcNAc(b1-6)]Gal(b1-4)Glc
Procedure, shortened: as §1

Neu5Ac(a2-6)Gal(b1-4)Glc = biological target: Neu5Ac(a2-6)Gal(b1-4)Glc
Procedure, shortened: as §1

[20] = biological target: Neu5Ac(a2-6)Gal(b1-4)GlcNAc
Procedure, shortened: as §1

[21] = biological target: Neu5Ac(a2-6)Gal(b1-4)GlcNAc(b1-2)Man
Procedure, shortened: as §1

[22] = biological target: Neu5Ac(a2-6)Gal(b1-4)GlcNAc(b1-2)Man(a1-3)Man(b1-4)GlcNAc(b1-4)GlcNAc
Procedure, shortened: as §1

[23] = biological target: Neu5Ac(a2-6)Gal(b1-4)GlcNAc(b1-2)Man(a1-3)[Gal(b1-4)GlcNAc(b1-2)Man(a1-6)]Man(b1-4)GlcNAc(b1-4)GlcNAc
Procedure, shortened: as §1

[24] = biological target: Neu5Ac(a2-6)Gal(b1-4)GlcNAc(b1-2)Man(a1-3)[GlcNAc(b1-2)Man(a1-6)]Man(b1-4)GlcNAc(b1-4)GlcNAc
Procedure, shortened: as §1

[25] = biological target: Neu5Ac(a2-6)Gal(b1-4)GlcNAc(b1-2)Man(a1-3)[GlcNAc(b1-4)][Neu5Ac(a2-6)Gal(b1-4)GlcNAc(b1-2)Man(a1-6)]Man(b1-4)GlcNAc(b1-4)GlcNAc
Procedure, shortened: as §1

[26] = biological target: Neu5Ac(a2-6)Gal(b1-4)GlcNAc(b1-2)Man(a1-3)[Man(a1-6)]Man(b1-4)GlcNAc(b1-4)GlcNAc
Procedure, shortened: as §1

[27] = biological target: Neu5Ac(a2-6)Gal(b1-4)GlcNAc(b1-2)Man(a1-3)[Neu5Ac(a2-3)Gal(b1-4)GlcNAc(b1-2)Man(a1-6)]Man(b1-4)GlcNAc(b1-4)GlcNAc
Procedure, shortened: as §1

[28] = biological target: Neu5Ac(a2-6)Gal(b1-4)GlcNAc(b1-2)Man(a1-3)[Neu5Ac(a2-6)Gal(b1-4)GlcNAc(b1-2)Man(a1-6)]Man(b1-4)GlcNAc(b1-4)GlcNAc
Procedure, shortened: as §1

[29] = biological target: Neu5Ac(a2-6)Gal(b1-4)GlcNAc(b1-2)Man(a1-3)[Neu5Ac(a2-6)Gal(b1-4)GlcNAc(b1-2)Man(a1-6)]Man(b1-4)GlcNAc(b1-4)[Fuc(a1-6)]GlcNAc
Procedure, shortened: as §1

[30] = biological target: Neu5Ac(a2-6)Gal(b1-4)GlcNAc(b1-2)Man(a1-6)Man(b1-4)GlcNAc(b1-4)GlcNAc
Procedure, shortened: as §1

[31] = biological target: Neu5Ac(a2-6)Gal(b1-4)GlcNAc(b1-2)Man(a1-6)[Gal(b1-4)GlcNAc(b1-2)Man(a1-3)]Man(b1-4)GlcNAc(b1-4)GlcNAc
Procedure, shortened: as §1

[32] = biological target: Neu5Ac(a2-6)Gal(b1-4)GlcNAc(b1-2)Man(a1-6)[GlcNAc(b1-2)Man(a1-3)]Man(b1-4)GlcNAc(b1-4)GlcNAc
Procedure, shortened: as §1

[33] = biological target: Neu5Ac(a2-6)Gal(b1-4)GlcNAc(b1-2)Man(a1-6)[Man(a1-3)]Man(b1-4)GlcNAc(b1-4)GlcNAc
Procedure, shortened: as §1

[34] = biological target: Neu5Ac(a2-6)Gal(b1-4)GlcNAc(b1-2)[Neu5Ac(a2-6)Gal(b1-4)GlcNAc(b1-4)]Man(a1-3)[GlcNAc(b1-4)][Neu5Ac(a2-6)Gal(b1-4)GlcNAc(b1-2)[Neu5Ac(a2-6)Gal(b1-4)GlcNAc(b1-6)]Man(a1-6)]Man(b1-4)GlcNAc(b1-4)GlcNAc
Procedure, shortened: as §1

[35] = biological target: Neu5Ac(a2-6)Gal(b1-4)GlcNAc(b1-2)[Neu5Ac(a2-6)Gal(b1-4)GlcNAc(b1-4)]Man(a1-3)[GlcNAc(b1-4)][Neu5Ac(a2-6)Gal(b1-4)GlcNAc(b1-4)Man(a1-6)]Man(b1-4)GlcNAc(b1-4)GlcNAc
Procedure, shortened: as §1

[36] = biological target: Neu5Ac(a2-6)Gal(b1-4)GlcNAc(b1-2)[Neu5Ac(a2-6)Gal(b1-4)GlcNAc(b1-6)]Man(a1-6)[Neu5Ac(a2-6)Gal(b1-4)GlcNAc(b1-2)Man(a1-3)][GlcNAc(b1-4)]Man(b1-4)GlcNAc(b1-4)GlcNAc
Procedure, shortened: as §1

[37] = biological target: Neu5Ac(a2-6)Gal(b1-4)GlcNAc(b1-3)Gal(b1-3)GlcNAc
Procedure, shortened: as §1

[38] = biological target: Neu5Ac(a2-6)Gal(b1-4)GlcNAc(b1-3)Gal(b1-4)GlcNAc
Procedure, shortened: as §1

[39] = biological target: Neu5Ac(a2-6)Gal(b1-4)GlcNAc(b1-3)Gal(b1-4)GlcNAc(b1-2)Man(a1-3)[Neu5Ac(a2-6)Gal(b1-4)GlcNAc(b1-3)Gal(b1-4)GlcNAc(b1-2)Man(a1-6)]GalNAc
Procedure, shortened: as §1

[40] = biological target: Neu5Ac(a2-6)Gal(b1-4)GlcNAc(b1-3)Gal(b1-4)GlcNAc(b1-3)Gal(b1-4)GlcNAc
Procedure, shortened: as §1

[41] = biological target: Neu5Ac(a2-6)Gal(b1-4)GlcNAc(b1-3)Gal(b1-4)GlcNAc(b1-3)Gal(b1-4)GlcNAc(b1-2)Man(a1-3)[Neu5Ac(a2-6)Gal(b1-4)GlcNAc(b1-3)Gal(b1-4)GlcNAc(b1-3)Gal(b1-4)GlcNAc(b1-2)Man(a1-6)]GalNAc
Procedure, shortened: as §1

[42] = biological target: Neu5Ac(a2-6)Gal(b1-4)GlcNAc(b1-3)Gal(b1-4)GlcNAc(b1-3)GalNAc
Procedure, shortened: as §1

B1: LCA (Lens culinaris), P02870 (protein)
chain: MASLQTQMISFYLIFLSILLTTIFFFKVNSTETTSFSITKFSPDQKNLIFQGDGYTTKGKLTLTKAVKSTVGRALYSTPIHIWDRDTGNVANFVTSFTFVIDAPSSYNVADEFTFFIAPVDTKPQTGGGYLGVFNSKEYDKTSQTVAVEFDTFYNAAWDPSNKERHIGIDVNSIKSVNTKSWNLQNGERANVVIAFNAATNVLTVTLTYPNSLEEENVTSYTLNEVVPLKDVVPEWVRIGFSATTGAEFAAHEVHSWSFHSELGGTSSSKQAADA
glycan array binding signal (z-score) [1]: -0.208
glycan array binding signal (z-score) [2]: -0.235
glycan array binding signal (z-score) [3]: -0.234
glycan array binding signal (z-score) [4]: -0.225
glycan array binding signal (z-score) [5]: -0.213
glycan array binding signal (z-score) [6]: -0.199
glycan array binding signal (z-score) [7]: -0.183
glycan array binding signal (z-score) [8]: -0.117
glycan array binding signal (z-score) [9]: -0.145
glycan array binding signal (z-score) [10]: -0.165
glycan array binding signal (z-score) [11]: -0.234
glycan array binding signal (z-score) [12]: -0.235
glycan array binding signal (z-score) [13]: -0.228
glycan array binding signal (z-score) (Neu5Ac(a2-3)GalNAc): -0.217
glycan array binding signal (z-score) [14]: -0.236
glycan array binding signal (z-score) [15]: -0.235
glycan array binding signal (z-score) [16]: -0.21
glycan array binding signal (z-score) [17]: 0.102
glycan array binding signal (z-score) [18]: -0.228
glycan array binding signal (z-score) (Neu5Ac(a2-6)Gal): -0.218
glycan array binding signal (z-score) [19]: -0.232
glycan array binding signal (z-score) (Neu5Ac(a2-6)Gal(b1-4)Glc): -0.197
glycan array binding signal (z-score) [20]: -0.202
glycan array binding signal (z-score) [21]: -0.23
glycan array binding signal (z-score) [22]: -0.214
glycan array binding signal (z-score) [23]: -0.188
glycan array binding signal (z-score) [24]: -0.017
glycan array binding signal (z-score) [25]: -0.24
glycan array binding signal (z-score) [26]: -0.239
glycan array binding signal (z-score) [27]: -0.222
glycan array binding signal (z-score) [28]: -0.178
glycan array binding signal (z-score) [29]: 4.04
glycan array binding signal (z-score) [30]: -0.23
glycan array binding signal (z-score) [31]: -0.207
glycan array binding signal (z-score) [32]: -0.231
glycan array binding signal (z-score) [33]: -0.202
glycan array binding signal (z-score) [34]: -0.236
glycan array binding signal (z-score) [35]: -0.227
glycan array binding signal (z-score) [36]: -0.211
glycan array binding signal (z-score) [37]: -0.296
glycan array binding signal (z-score) [38]: -0.22
glycan array binding signal (z-score) [39]: -0.067
glycan array binding signal (z-score) [40]: -0.234
glycan array binding signal (z-score) [41]: 0.072
glycan array binding signal (z-score) [42]: -0.224
